# Reference: FireProtDB (doi:10.1110/ps.37401)
# Conditions: Thermal, DSC
# [1] = Homo sapiens, pH 6.6, N-(2-acetamido)iminodiacetic acid(ADA) 20 mM, NaCl 100 mM, reversible: yes
Substance,"Tm (Gallus gallus, pH 2.7, glycine hydrochloride 0.05 M, reversible: Unknown) [°C]",Tm [1] [°C],unfolding enthalpy (calorimetric) [1] [kcal/mol],unfolding enthalpy (van 't Hoff) [1] [kcal/mol]
Lysozyme C wild type (no sequence given),66,,,
Fibroblast growth factor 1 wild type (no sequence given),,40,62.4,56.1
